PubChem BioAssay (NCATS)
This list was built around the results that the source calls inconclusive (neither active nor inactive); the mix of calls is not that of the screen. Potencies of inconclusive entries are left out as doubtful fits. Activity calls are given as the source filed them. Calls come from the whole dose curve; as a rule, active = well fitted inhibition curve with a large enough effect; inconclusive = small, poorly fitted or top-dose-only effect; inactive = no such curve, though single readings can be large or run the other way. Where a SMILES comes first, the peptide text is derived from it. [ ]: non-standard residue; d: D form. The star is where a group is joined. Nva = CCC[C@H](N)C(=O)O; Cbz = O=C(OCc1ccccc1)*

Assay: qHTS Screen of the MIPE 4.0 Collection Against Ewings Sarcoma (TC71) (AID 1259253); note: nearly all actives have a fitted effect of over 40% in size
Settings: TC71 Ewing sarcoma viability, CellTiter-Glo, 48 h; series mostly up to 45.8 µM
In short: (§1)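 CellTiter-Glo luminescence after 48 h compound exposure (titration) gave viability; percent activity used DMSO-treated cells as no inhibition and medium-only wells as full inhibition. Cells grown in RPMI/5% FBS, dosed 4 h post-seeding.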
Potency is the fitted concentration of half-maximal effect; tags give direction and shape of the fitted curve.

| Structure (SMILES) | Potency |
| --- | --- |
| Cc1ccc(S(=O)(=O)OCC(=O)Nc2ccc(C(=O)O)c(O)c2)cc1 | inconclusive [inhibitor, single point] |
| CCCCS(=N)(=O)CCC(N)C(=O)O (centres undefined) | inactive |
| C=CC(=O)N1CCc2ccc(-n3c(=O)ccc4cnc5ccc(-c6cnn(C)c6)cc5c43)cc21 | active: 3.32 µM |
| CON=C(C(=O)N[C@@H]1C(=O)N2C(C(=O)O)=C(Cn3ccc(=N)n3CCO)CS[C@H]12)c1csc(N)n1 | inactive |
| CC1(COc2ccc3c(c2)ncn3-c2ccc3cccc(N4CCC(N)CC4)c3n2)COC1 | inactive |
| CC(C)[C@H](O)C(=O)N[C@@H](C)C(=O)N[C@@H]1C(=O)N(C)CCc2ccccc21 | inconclusive [inhibitor, single point] |
| CCC[C@H]1C[C@H](C(=O)N[C@@H]([C@@H]2O[C@@H](SC)[C@@H](O)[C@@H](O)[C@@H]2O)[C@H](C)Cl)N(C)C1 | inactive |
| CCOc1ccccc1OCCNC(C)Cc1ccc(OC)c(S(N)(=O)=O)c1 (centres undefined) | inactive |
| Cc1cc(NS(=O)(=O)c2ccc(N)cc2)no1 | inactive |
| COc1cccc(Nc2c(C(N)=O)cnc3c(C)cc(S(=O)(=O)c4cccc(C(=O)N(C)C)c4)cc23)c1 | inactive |
| CNC(=O)[C@H](CC1=CN=C2C=CCC=C12)NC(=O)[C@@H](CC(=O)NO)CC(C)C | inconclusive [inhibitor, single point] |
| CCC[C@@H](C=O)NC(=O)[C@H](CC(C)C)NC(=O)[C@H](CC(C)C)NC(=O)OCc1ccccc1 (Cbz-Leu-Leu-[Nva]-aldehyde) | active: 1.32 µM |

Assay: qHTS Screen of the MIPE 4.0 Collection Against Ewings Sarcoma (EW8) (AID 1259255); note: nearly all actives have a fitted effect of over 35% in size
Settings: EW8 Ewing sarcoma viability, CellTiter-Glo, 48 h; series mostly up to 45.8 µM
In short: as §1

| Structure (SMILES) | Potency |
| --- | --- |
| CC(C)(C)C(=O)Oc1ccc(S(=O)(=O)Nc2ccccc2C(=O)NCC(=O)O)cc1 | inactive |
| CC1CNc2c(cccc2S(=O)(=O)N[C@@H](CCCN=C(N)N)C(=O)N2CC[C@@H](C)C[C@@H]2C(=O)O)C1 (some centres undefined) | inconclusive [inhibitor, full curve] |
| O=C1C(c2c(O)[nH]c3ccccc23)=Nc2ccccc21 | active: 26.4 µM |
| N#CC(c1ccc(Cl)cc1)c1c(Cl)cc(-n2ncc(=O)[nH]c2=O)cc1Cl (centres undefined) | inconclusive [inhibitor, single point] |
| N#CC(=C(O)c1ccc(Cl)cc1Cl)c1nc2cc(Cl)ccc2c(=O)[nH]1 | inactive |
| Cc1cc(-c2ncc(CC(=O)Nc3ccc(-c4cnccn4)cn3)cc2C)ccn1 | inconclusive [inhibitor, partial curve] |
| O=C(O)CCCc1c[nH]c2ccccc12 | inactive |
| C=CC[C@@H]1C=C(C)C[C@H](C)C[C@H](OC)[C@H]2O[C@@](O)(C(=O)C(=O)N3CCCC[C@H]3C(=O)O[C@H](C(C)=C[C@@H]3CC[C@H](O)[C@H](OC)C3)[C@@H](C)[C@@H](O)CC1=O)[C@@H](C)C[C@@H]2OC | active: 1.66 µM |
| C[C@@H](NC(=O)c1ncnc(N)c1Cl)c1ncc(C(=O)Nc2cc(C(F)(F)F)c(Cl)cn2)s1 | inconclusive [inhibitor, partial curve] |
| Cc1cc(C(C)Nc2ccccc2)c2nc(N3CCOCC3)cc(=O)n2c1 (centres undefined) | inconclusive [inhibitor, single point] |
| COc1ccc2c(c1OC)C(=O)OC2[C@H]1c2c(cc3c(c2OC)OCO3)CCN1C (some centres undefined) | active: 0.0526 µM |
| CNC(=O)c1c(-c2ccc(F)cc2)oc2cc(N(CCO)S(C)(=O)=O)c(C3CC3)cc12 | inconclusive [inhibitor, partial curve, poor fit] |
| O=C1CCC(N2C(=O)c3ccccc3C2=O)C(=O)N1 (centres undefined) | inactive |
| C[C@H](CCC(=O)O)[C@H]1CC[C@H]2[C@@H]3[C@H](O)C[C@@H]4C[C@H](O)CC[C@]4(C)[C@@H]3CC[C@]12C | inactive |
| Clc1ccc(C2(c3ccc(-c4cn[nH]c4)cc3)CCNCC2)cc1 | active: 23.5 µM |
| CCCCC(=O)O[C@]1(C(=O)CO)[C@@H](C)C[C@H]2[C@@H]3CCC4=CC(=O)C=C[C@]4(C)[C@@]3(F)[C@@H](O)C[C@@]21C | inactive |
| Cc1cccc(CN2CCN(C(c3ccccc3)c3ccc(Cl)cc3)CC2)c1 (centres undefined) | inconclusive [inhibitor, single point] |
| Nc1ncnc2c1c(-c1cccc(OCc3ccccc3)c1)cn2C1CC(CN2CCC2)C1 (centres undefined) | inconclusive [inhibitor, partial curve] |
| CO[C@H]1/C=C\O[C@@]2(C)Oc3c(C)c(O)c4c(O)c(c(C=NN5CCN(C6CCCC6)CC5)c(O)c4c3C2=O)NC(=O)C(C)=CC=C[C@H](C)[C@H](O)[C@@H](C)[C@@H](O)[C@@H](C)[C@H](OC(C)=O)[C@H]1C | inconclusive [inhibitor, full curve] |
| C[C@H]1O[C@@H](n2cc(F)c(=O)[nH]c2=O)[C@H](O)[C@H]1O | inconclusive [inhibitor, partial curve] |
| Cn1cnc(-c2cc3nccc(Oc4ccc(NC(=S)NC(=O)Cc5ccccc5)cc4F)c3s2)c1 | inconclusive [inhibitor, partial curve] |
| O=C(Nc1cccc2c(=O)cc(-c3nn[nH]n3)oc12)c1ccc(OCCCCc2ccccc2)cc1 | inconclusive [inhibitor, partial curve] |
| CC(Oc1ccc(O)cc1)(P(=O)(O)O)P(=O)(O)O | inactive |
| Cc1ccc(S(=O)(=O)OCC(=O)Nc2ccc(C(=O)O)c(O)c2)cc1 | inconclusive [inhibitor, single point] |
| CCCCS(=N)(=O)CCC(N)C(=O)O (centres undefined) | inactive |
| CC1(COc2ccc3c(c2)ncn3-c2ccc3cccc(N4CCC(N)CC4)c3n2)COC1 | inconclusive [inhibitor, full curve] |
| CNC(=O)[C@H](CC1=CN=C2C=CCC=C12)NC(=O)[C@@H](CC(=O)NO)CC(C)C | inconclusive [inhibitor, partial curve, poor fit] |
